{"source": "PubChem BioAssay AID1347073", "about": "(National Center for Advancing Translational Sciences (NCATS), 2019)", "note": "The campaign covered roughly 45,000 compounds. About 200 (0.44%) were called active. Roughly 7% stayed inconclusive and do not appear here. Calls follow the shape of the dose curve; as a rule, active = well fitted activation curve with a large enough effect; inconclusive = small, poorly fitted or top-dose-only effect; inactive = no such curve, though single readings can be large or run the other way. This is one part of the list."}
{"test": "qHTS of TDP-43 Inhibitors: NCGC Sytravon Library Screen; also: 0% is about no effect; nearly all actives have a fitted effect of over 55% in size", "details": "yeast TDP-43 toxicity rescue, BacTiter-Glo growth, 24 h; series mostly up to 46.1 µM; growth rescue (activation): at the top concentration", "method_in_brief": "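TDP-43-expressing yeast, pregrown in raffinose, seeded at OD600 0.02 in galactose medium with compound for 24 hr at 30 deg C. Growth read by BacTiter-Glo luminescence, so rescue of toxicity appears as activation.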"}
{"molecule": "O=C(CSc1nc2ccccc2c(=O)n1-c1ccccc1)NCC1CCCO1", "note": "(configuration not stated)", "growth rescue (activation)": "inactive: -8.22%"}
{"molecule": "CCOc1ccc2ccccc2c1CNc1nnnn1C", "growth rescue (activation)": "inactive: 14.4%"}
{"molecule": "CC(C)C1NC(C(=O)O)Cc2c1[nH]c1ccccc21", "note": "(configuration not stated)", "growth rescue (activation)": "inactive: 1.72%"}
{"molecule": "CCc1nc2ccc(C(=O)NCCOc3ccc(OC)cc3)cn2c1N(C)Cc1ccc(N(C)C)cc1", "growth rescue (activation)": "inactive: 4.44%"}
{"molecule": "CCCCC(NC(C)=O)c1nc2ccccc2n1CCCC", "note": "(configuration not stated)", "growth rescue (activation)": "inactive: 7.35%"}
{"molecule": "COc1ccccc1C(=O)Nc1ccc2c3c(cccc13)CC2", "growth rescue (activation)": "inactive: 8.52%"}
{"molecule": "CC(C)CC(N)c1csc(Nc2ccc(C(=O)c3ccccc3)cc2)n1", "note": "(configuration not stated)", "growth rescue (activation)": "inactive: 18.3%"}
{"molecule": "CC(C)Oc1cccc(C(=O)C2CCCN(C(=O)c3csnn3)C2)c1", "note": "(configuration not stated)", "growth rescue (activation)": "inactive: 5.12%"}
{"molecule": "CCOc1cc(C2NC(=O)NC(O)(C(F)(F)F)C2C(=O)c2ccc(OC)cc2)ccc1O", "note": "(configuration not stated)", "growth rescue (activation)": "inactive: 1.16%"}
{"molecule": "Cc1c(NC(=S)N/N=C/C=C/c2ccccc2)c(=O)n(-c2ccccc2)n1C", "growth rescue (activation)": "inactive: 12.2%"}
{"molecule": "CCOC(=O)c1c(NC(=O)CN2C(=O)NC(C)(c3ccc(OC(F)F)cc3)C2=O)sc(C)c1C", "note": "(configuration not stated)", "growth rescue (activation)": "inactive: 4.48%"}
{"molecule": "CCCc1cc2c(OC(=O)CC)c(-c3ccc(C(=O)OCC)o3)c(=O)oc2cc1OC", "growth rescue (activation)": "inactive: -6.62%"}
{"molecule": "CCn1c(=O)c(C(=O)CN2CCN(Cc3ccc4c(c3)OCO4)CC2)c(N)n(Cc2ccccc2)c1=O", "growth rescue (activation)": "inactive: -1.65%"}
{"molecule": "CCN(CC)S(=O)(=O)c1cccc(-c2nnc(SCC(=O)N3CCC(C(=O)O)CC3)n2N)c1", "growth rescue (activation)": "inactive: -13.1%"}
{"molecule": "CCc1cc2c(COC(=O)c3cccc(S(C)(=O)=O)c3)cc(=O)oc2cc1O", "growth rescue (activation)": "inactive: 20.5%"}
{"molecule": "COc1ccc(CN(C)Cc2nc(Cc3ccccc3Cl)no2)cc1OC", "growth rescue (activation)": "inactive: 21%"}
{"molecule": "CC(C)CC1Nc2ccc(C(=O)NCCCN3CCOCC3)cc2NC1=O", "note": "(configuration not stated)", "growth rescue (activation)": "inactive: 9.57%"}
{"molecule": "O=C(N/N=C/C1CC=CCC1)c1cc(-c2cccnc2)nc2ccccc12", "note": "(configuration not stated)", "growth rescue (activation)": "inactive: 14%"}
{"molecule": "COc1cc([N+](=O)[O-])ccc1NC(=O)CC1SC(=Nc2ccc(F)cc2)N(CCC2=CCCCC2)C1=O", "note": "(configuration not stated)", "growth rescue (activation)": "inactive: 7.56%"}
{"molecule": "Cc1ccc(CSc2ncnc3c2cnn3-c2ccc(C)cc2)cc1", "growth rescue (activation)": "inactive: 21.4%"}
{"molecule": "CCc1nc(SCc2ccc(C(=O)OC)o2)n[nH]1", "growth rescue (activation)": "inactive: -9.95%"}
{"molecule": "COC(=O)c1ccccc1OCCOCCOc1cccc2cccnc12", "growth rescue (activation)": "inactive: 6.78%"}
{"molecule": "O=C(O)CSc1nc2sc3c(c2c(=O)n1-c1ccccc1)CCC3", "growth rescue (activation)": "inactive: -28.5%"}
{"molecule": "Cn1c(CNC(=O)c2ccccc2F)nnc1SCC(=O)NCc1ccccc1", "growth rescue (activation)": "inactive: -4.26%"}
{"molecule": "Cc1nc2ccc(S(=O)(=O)CCC(=O)Nc3ccc(Cl)cc3)cc2s1", "growth rescue (activation)": "inactive: 1.96%"}
{"molecule": "O=C(O)C(=O)/C(=C\\c1ccsc1)c1ccc2ccccc2n1", "growth rescue (activation)": "inactive: -15.5%"}
{"molecule": "Cc1cccc(NC2=C/C(=N/S(=O)(=O)c3cccs3)c3ccccc3C2=O)c1", "growth rescue (activation)": "inactive: -10.4%"}
{"molecule": "CC1CCN(c2ccc(C=O)o2)CC1", "growth rescue (activation)": "inactive: -7.77%"}
{"molecule": "O=C(O)c1cc([N+](=O)[O-])c(N2CCCC2)c([N+](=O)[O-])c1", "growth rescue (activation)": "inactive: 18.9%"}
{"molecule": "CSCC[C@H](NC(=O)c1ccc(OCC2CCCO2)cc1)c1nc2ccccc2[nH]1", "note": "(some centres not stated)", "growth rescue (activation)": "inactive: 15.1%"}
{"molecule": "CCc1c(C)sc2nc3c(C(=O)N4CCOCC4)cc(C(=O)c4cc(F)ccc4O)cn3c(=O)c12", "growth rescue (activation)": "inactive: 10.8%"}
{"molecule": "O=C1OC(c2ccc3c(c2)OCO3)=N/C1=C\\c1ccc(C(=O)O)cc1", "growth rescue (activation)": "inactive: -3.7%"}
{"molecule": "Cc1ccc(NC(=O)C(=O)Nc2ccccn2)cc1", "growth rescue (activation)": "inactive: -12.9%"}
{"molecule": "CN(C)CCNc1nc2sc3c(c2c(=O)n1Cc1ccccc1)CCCCC3", "growth rescue (activation)": "inactive: 5.36%"}
{"molecule": "Cc1nc(Oc2ccc(S(=O)(=O)N3CCOCC3)cc2Cl)c2c3c(sc2n1)CCCC3", "growth rescue (activation)": "inactive: 12.7%"}
{"molecule": "CC(C)(CN1CCc2ccccc2C1)NS(=O)(=O)c1ccccc1", "growth rescue (activation)": "inactive: 24.7%"}
{"molecule": "COC(=O)c1[nH]cnc1C(=O)c1ccccc1", "growth rescue (activation)": "inactive: -1.85%"}
{"molecule": "O=C(COC(=O)c1ccccc1NC(=O)c1ccco1)Nc1ccc2c(c1)OCO2", "growth rescue (activation)": "inactive: 18%"}
{"molecule": "COc1ccc(C(=O)NCC(=O)OCC(=O)N2CCN(S(=O)(=O)c3ccccc3)CC2)cc1", "growth rescue (activation)": "inactive: -14.8%"}
{"molecule": "CC1(NC(=O)Nc2cccc3ccccc23)CCS(=O)(=O)C1", "note": "(configuration not stated)", "growth rescue (activation)": "inactive: -4.72%"}
{"molecule": "O=C1c2ccccc2C(=O)N1CN(C(=O)COc1ccc(Cl)cc1Cl)c1cccc(F)c1", "growth rescue (activation)": "inactive: 2.86%"}
{"molecule": "CC1CCN(C(=O)CCN2C(=O)/C(=C/c3cccs3)SC2=S)CC1", "growth rescue (activation)": "inactive: -14.2%"}
{"molecule": "COc1cccc(NC(=O)NC2CCCc3ccccc32)c1", "note": "(configuration not stated)", "growth rescue (activation)": "inactive: 7.99%"}
{"molecule": "CCCCc1c(C)nc2ccc(C)cc2c1SCCC(=O)O", "growth rescue (activation)": "inactive: 2.09%"}
{"molecule": "CN(C)c1ccc(/C=C/C(=O)c2c(O)c3ccccc3oc2=O)cc1", "growth rescue (activation)": "inactive: -49.4%"}
{"molecule": "COc1ccccc1NC(=O)C1CC(O)CN1C(=O)Oc1ccccc1", "note": "(configuration not stated)", "growth rescue (activation)": "inactive: 8.22%"}
{"molecule": "CCOC(=O)Cc1csc(NC(=S)NC(=O)CC(C)C)n1", "growth rescue (activation)": "inactive: 32.2%"}
{"molecule": "COc1ccc(CCNC(=O)Cn2nc(C(=O)O)c3ccccc3c2=O)cc1OC", "growth rescue (activation)": "inactive: -0.753%"}
{"molecule": "O=C(CCl)Nc1ncc(S(=O)(=O)c2ccc([N+](=O)[O-])cc2)s1", "growth rescue (activation)": "inactive: -4.77%"}
{"molecule": "CC(Sc1nncs1)C(=O)Nc1ccc(Cl)cn1", "note": "(configuration not stated)", "growth rescue (activation)": "inactive: 7.92%"}
{"molecule": "CC(C)NS(=O)(=O)c1ccc(OCC(=O)N2CCc3ccccc3C2)cc1", "growth rescue (activation)": "inactive: -1.82%"}
{"molecule": "CC(=O)c1ccc(OCCn2cnc3ccccc32)cc1", "growth rescue (activation)": "inactive: 11.4%"}
{"molecule": "COc1cccc(-n2c(-c3ccc4[nH]c(C)c(C)c4c3)n[nH]c2=S)c1", "growth rescue (activation)": "inactive: 9.75%"}
{"molecule": "COc1ccc(N(CC(=O)N2CCN(c3ccc(Cl)cc3)CC2)S(=O)(=O)c2c(C)n[nH]c2C)cc1", "growth rescue (activation)": "inactive: 19.9%"}
{"molecule": "CCc1ccccc1NCc1cc(=O)oc2cc(C)ccc12", "growth rescue (activation)": "inactive: 8.69%"}
{"molecule": "COc1cccc(-n2c(SCC(N)=O)nc3c([nH]c4ccccc43)c2=O)c1", "growth rescue (activation)": "inactive: 14.1%"}
{"molecule": "O=C(Cc1ccc(Cl)cc1Cl)NCc1cccnc1", "growth rescue (activation)": "inactive: 14.3%"}
{"molecule": "COc1ccc(-c2nnn(CC(=O)N(CCCN3CCOCC3)C(C(=O)NC3CCCC3)c3ccco3)n2)cc1", "note": "(configuration not stated)", "growth rescue (activation)": "inactive: 10.1%"}
{"molecule": "CCCCN(C=O)c1c(CC)nc2ccc(C(=O)NCCc3ccccn3)cn12", "growth rescue (activation)": "inactive: -6.53%"}
{"molecule": "Cc1cc(N2CCOCC2)n2cc(-c3ccc(F)cc3)nc2n1", "growth rescue (activation)": "inactive: -17.1%"}
{"molecule": "Cn1c(=O)c2[nH]c(SCC(=O)c3ccc(F)cc3)nc2n(C)c1=O", "growth rescue (activation)": "inactive: 5.62%"}
{"molecule": "Cn1c(C(C(=O)NCC2CCCO2)N(CCc2ccccc2)C(=O)Cn2nnc3ccccc32)nc2ccccc21", "note": "(configuration not stated)", "growth rescue (activation)": "inactive: 0.75%"}
{"molecule": "CCOC(=O)c1c(NC(=O)COc2cc(C)ccc2C(C)C)sc(C)c1C", "growth rescue (activation)": "inactive: 1.01%"}
{"molecule": "O=C(CCN1C(=O)/C(=C/c2cccs2)SC1=S)Nc1cccc(O)c1", "growth rescue (activation)": "inactive: -19.4%"}
{"molecule": "COCCn1c(SCC(=O)N2CCCCCC2)nnc1-c1ccco1", "growth rescue (activation)": "inactive: -6.09%"}
{"molecule": "CCn1c(Cc2ccc(OC)cc2)nnc1SCc1nc2ccccc2c(=O)[nH]1", "growth rescue (activation)": "inactive: -19.4%"}
{"molecule": "CC(OC(=O)c1ccc2c(c1)S(=O)(=O)c1ccccc1C2=O)C(N)=O", "note": "(configuration not stated)", "growth rescue (activation)": "inactive: 15.6%"}
